Laboratory results taken from the supplement of paper PMC7826260.
Some of the results follow. Cleavage of a single-stranded DNA pool by Rep nickase domains was read by sequencing at 3 µM enzyme and 37 °C for 1 h; the strands have 90 letters, of which the middle is given. The score is log2 (uncut reads / reads without enzyme); strong cutting gives strongly negative numbers. There is no active / inactive call. Because reads are shares of a total, they shift together; where an enzyme cuts many sequences, the uncut ones exceed 0.

These sequences were tested on T1, Rep nickase domain of porcine circovirus 2 (assay: uncleaved DNA left, log2 of reads against the no-enzyme library (log2 ratio); higher = less cleavage (more negative = more Rep cleavage of the k-mer); sequences stand for … in CTCGTCCG…ACCGGAGA).
T1 sequence (residues 2-116 of Rep, tag left off): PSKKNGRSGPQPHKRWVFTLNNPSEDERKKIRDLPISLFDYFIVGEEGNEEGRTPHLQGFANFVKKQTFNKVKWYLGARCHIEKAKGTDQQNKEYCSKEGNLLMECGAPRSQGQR
Description: (§1)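 A pool of 90-nt single-stranded DNAs with seven random bases just before the constant AC of the nick site (name = the seven bases) was cut by 3 µM recombinant His6-SUMO-tagged Rep nickase domain (300 nM DNA, 50 mM HEPES pH 8.0, 50 mM NaCl, 1 mM MnCl2, 1 h, 37 °C, three replicates). Uncut DNA was amplified and sequenced.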

Sequence	uncleaved DNA left (log2)
TGGGTCT	0.155
ATAGGTG	0.167
TCTTAGA	0.068
AGGACTC	0.083
CGGACTT	0.0864
CCCTGTG	0.131
TCGCGTA	0.0313
AATACGT	-1.78
GAACAAG	0.243
TACTAAG	0.152
TGTCCGC	0.0265
AACCGTC	-0.196
TCAGCAA	-0.0465
AATTAAG	0.137
TCGATCG	0.126
CTGTGCA	-0.0172
CCTTCGT	-0.0291
TTGGGAC	0.182
GTCCCCA	-0.0425
CTGGTCT	-0.18

Sequence	uncleaved DNA left (log2)
TCAATTT	-0.362
GCCTCTT	-2.32
TCAGGAG	0.158
TGCGTAT	-0.203
GGCTCTT	-2.23
AGGACAG	0.234
ATCACCG	0.132
TTCCACT	-0.304
AATAGGA	0.216
TCCGGGT	0.141
ACGAATC	0.141
AAAGTTA	-0.146
TGGTTAG	0.143
CCATCTA	-0.0213
TACTGCG	0.0486
CAGAGAA	-0.473
GCGCCAG	0.128
ACTTAAT	-3.22
CCTCGTC	-0.0172
TAAAGTA	-0.204

The sequences below were run on T2, Rep nickase domain of tomato golden mosaic virus in the same assay as above.
T2 sequence (residues 1-124 of Rep, tag left off): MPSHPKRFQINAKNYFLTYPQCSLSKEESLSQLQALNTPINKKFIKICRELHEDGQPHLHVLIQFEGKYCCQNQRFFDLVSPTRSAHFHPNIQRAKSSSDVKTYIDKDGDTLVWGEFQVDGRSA
Description: as §1

Sequence	uncleaved DNA left (log2)
TGGGTCT	-0.000652
ATAGGTG	0.0291
TCTTAGA	-0.0589
AGGACTC	-0.106
CGGACTT	-0.231
CCCTGTG	-0.0461
TCGCGTA	-0.105
AATACGT	-0.012
GAACAAG	0.0628
TACTAAG	0.0975
TGTCCGC	-0.077
AACCGTC	-0.13
TCAGCAA	0.0453
AATTAAG	0.0993
TCGATCG	0.0743
CTGTGCA	-0.0183
CCTTCGT	-0.0727
TTGGGAC	0.124
GTCCCCA	0.0303
CTGGTCT	0.0205

Sequence	uncleaved DNA left (log2)
TCAATTT	-0.0883
GCCTCTT	-0.0187
TCAGGAG	-0.0494
TGCGTAT	-0.18
GGCTCTT	-0.137
AGGACAG	0.0949
ATCACCG	0.00483
TTCCACT	-0.147
AATAGGA	0.167
TCCGGGT	0.0975
ACGAATC	0.0404
AAAGTTA	0.147
TGGTTAG	0.00839
CCATCTA	0.0675
TACTGCG	-0.189
CAGAGAA	-0.114
GCGCCAG	0.0558
ACTTAAT	0.0864
CCTCGTC	-0.193
TAAAGTA	-0.229

These sequences were tested on T3, Rep nickase domain of tomato yellow leaf curl virus in the same assay as above.
T3 sequence (residues 1-136 of Rep, tag left off): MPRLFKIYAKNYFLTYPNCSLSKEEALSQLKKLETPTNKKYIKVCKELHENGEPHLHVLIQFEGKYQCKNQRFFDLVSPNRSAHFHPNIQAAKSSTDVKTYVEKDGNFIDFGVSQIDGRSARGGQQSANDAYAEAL
Description: as §1

Sequence	uncleaved DNA left (log2)
TGGGTCT	-0.0605
ATAGGTG	0.0299
TCTTAGA	-0.00951
AGGACTC	0.0569
CGGACTT	-0.0776
CCCTGTG	-0.0798
TCGCGTA	-0.102
AATACGT	0.0249
GAACAAG	0.147
TACTAAG	0.11
TGTCCGC	0.123
AACCGTC	-0.0803
TCAGCAA	-0.0244
AATTAAG	0.0383
TCGATCG	0.0136
CTGTGCA	0.156
CCTTCGT	0.0607
TTGGGAC	0.081
GTCCCCA	0.0809
CTGGTCT	0.0504

Sequence	uncleaved DNA left (log2)
TCAATTT	-0.0852
GCCTCTT	-0.182
TCAGGAG	-0.138
TGCGTAT	-0.172
GGCTCTT	-0.0715
AGGACAG	0.104
ATCACCG	-0.0511
TTCCACT	-0.0596
AATAGGA	-0.0333
TCCGGGT	0.00694
ACGAATC	-0.0873
AAAGTTA	-0.0443
TGGTTAG	0.148
CCATCTA	0.0756
TACTGCG	-0.342
CAGAGAA	-0.154
GCGCCAG	0.0708
ACTTAAT	-0.103
CCTCGTC	-0.138
TAAAGTA	-0.0493

These sequences were tested on T4, Rep nickase domain of wheat dwarf virus in the same assay as above.
T4 sequence (residues 1-137 of Rep, tag left off): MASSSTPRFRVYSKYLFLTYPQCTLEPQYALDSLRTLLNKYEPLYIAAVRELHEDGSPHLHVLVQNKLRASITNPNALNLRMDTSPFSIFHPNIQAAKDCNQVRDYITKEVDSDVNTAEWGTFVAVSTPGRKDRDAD
Description: as §1

Sequence	uncleaved DNA left (log2)
TGGGTCT	0.0738
ATAGGTG	-0.0258
TCTTAGA	-0.06
AGGACTC	0.162
CGGACTT	0.168
CCCTGTG	-0.079
TCGCGTA	-0.0973
AATACGT	0.0201
GAACAAG	0.125
TACTAAG	-0.0635
TGTCCGC	0.0402
AACCGTC	-0.197
TCAGCAA	-0.0684
AATTAAG	0.0597
TCGATCG	-0.061
CTGTGCA	-0.0361
CCTTCGT	0.048
TTGGGAC	0.172
GTCCCCA	0.0797
CTGGTCT	0.0445

Sequence	uncleaved DNA left (log2)
TCAATTT	-0.0759
GCCTCTT	-0.0493
TCAGGAG	-0.0359
TGCGTAT	-0.244
GGCTCTT	0.0663
AGGACAG	0.171
ATCACCG	-0.0838
TTCCACT	-0.0326
AATAGGA	0.0592
TCCGGGT	-0.104
ACGAATC	-0.0902
AAAGTTA	-0.0538
TGGTTAG	0.0224
CCATCTA	0.0123
TACTGCG	-0.189
CAGAGAA	-0.149
GCGCCAG	0.0721
ACTTAAT	-0.00302
CCTCGTC	-0.162
TAAAGTA	-1.72
